The list shows a part of the results. Single values are uncertain, as repeats are few or missing.
Experiments:
Test in all cases: cell count relative to DMSO control; melanoma cells; higher = more viable cells
Settings in all cases: library dose: standard library concentration; 72 h
G361 = tested on: G361
IPC-298 = tested on: IPC-298
IST-MEL1 = tested on: IST-MEL1
LB2518-MEL = tested on: LB2518-MEL
LOXIMVI = tested on: LOXIMVI
MEL-HO = tested on: MEL-HO
MZ2-MEL = tested on: MZ2-MEL
MeWo = tested on: MeWo
RPMI7951 = tested on: RPMI7951
RVH-421 = tested on: RVH-421
SkMel28 = tested on: SkMel28
SkMel2 = tested on: SkMel2
SkMel30 = tested on: SkMel30
SkMel5 = tested on: SkMel5
UACC257 = tested on: UACC257
UACC62 = tested on: UACC62
WM115 = tested on: WM115
WM1716 = tested on: WM1716
WM1745 = tested on: WM1745
WM3526 = tested on: WM3526
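Further: cells treated in 1,536-well plates, then fixed and DAPI-stained, with nuclei counted from automated high-throughput microscope images.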

Row | Compound | cell count (G361) | cell count (IPC-298) | cell count (IST-MEL1) | cell count (LB2518-MEL) | cell count (LOXIMVI) | cell count (MEL-HO) | cell count (MZ2-MEL) | cell count (MeWo) | cell count (RPMI7951) | cell count (RVH-421) | cell count (SkMel28) | cell count (SkMel2) | cell count (SkMel30) | cell count (SkMel5) | cell count (UACC257) | cell count (UACC62) | cell count (WM115) | cell count (WM1716) | cell count (WM1745) | cell count (WM3526)
1 | O=C(O)[C@@H]1[O][Sb](=[O])([O][Sb]2(=[O])[O][C@H]([C@H](O)CO)[C@H](O)[C@H](C(=O)O)[O]2)[O][C@H]([C@H](O)CO)[C@@H]1O (stereo not given in full) [stibogluconate] + Nc1cccc2c1CN(C1CCC(=O)NC1=O)C2=O [lenalidomide] (first compound 10 µM, partner dose 5 µM) | 103% | 120% | 100% | 111% | 89.5% | 109% | 109% | 97.9% | 78.8% | 101% | 93.1% | 99.5% | 103% | 84.1% | 105% | 94.9% | 70.4% | 94.7% | 75.1% | 83.7%
2 | O=C(Nc1ccccc1)c1cc([N+](=O)[O-])ccc1Cl + CCN(CC)CCCCNc1ncc2cc(-c3cc(OC)cc(OC)c3)c(NC(=O)NC(C)(C)C)nc2n1 [PD173074] (first compound 10 µM, partner dose 0.5 µM) | 97% | 101% | 102% | 102% | 63.1% | 98% | 96.7% | 99.6% | 85.7% | 95.4% | 80.8% | 96.6% | 106% | 75.1% | 110% | 88.1% | 84.7% | 159% | 91.3% | 92.2%
3 | O=C(Nc1ccccc1)c1cc([N+](=O)[O-])ccc1Cl + CC(C)CCN1c2nc(Nc3cc(F)c(O)c(F)c3)ncc2N(C)C(=O)C1C [BID1870] (first compound 10 µM, partner dose 1 µM) | 57.5% | 81.3% | 91.5% | 54% | 55.5% | 77.2% | 83.9% | 53.9% | 89.2% | 65.1% | 52.7% | 70.5% | 71.3% | 57.1% | 71.7% | 54.5% | 75.5% | 89.5% | 84.9% | 72%
4 | O=C(O)[C@@H]1[O][Sb](=[O])([O][Sb]2(=[O])[O][C@H]([C@H](O)CO)[C@H](O)[C@H](C(=O)O)[O]2)[O][C@H]([C@H](O)CO)[C@@H]1O (stereo not given in full) [stibogluconate] + COc1cc2c(Oc3ccc4[nH]c(C)cc4c3F)ncnc2cc1OCCCN1CCCC1 [cediranib] (first compound 10 µM, partner dose 2 µM) | 68.4% | 95.5% | 84.4% | 88.4% | 72.4% | 100% | 98.6% | 62.1% | 78.5% | 96.4% | 93.4% | 81.2% | 91.5% | 62.5% | 94.4% | 81.7% | 70.4% | 85.2% | 59.3% | 71.2%
5 | Cc1cc(N2CCOCC2)cc2[nH]c(-c3c(NC[C@@H](O)c4cccc(Cl)c4)cc[nH]c3=O)nc12 + NCC(=O)Nc1ccc(-n2nc(C(F)(F)F)cc2-c2ccc3c(ccc4ccccc43)c2)cc1 [OSU03012] (first compound 1 µM, partner dose 5 µM) | 66.1% | 60.9% | 70.8% | 77.9% | 56.1% | 78.3% | 104% | 78.3% | 76.8% | 73.6% | 22% | 37% | 36.9% | 52.3% | 87.8% | 52% | 100% | 87.4% | 50.8% | 50.6%
6 | O=C(O)[C@@H]1[O][Sb](=[O])([O][Sb]2(=[O])[O][C@H]([C@H](O)CO)[C@H](O)[C@H](C(=O)O)[O]2)[O][C@H]([C@H](O)CO)[C@@H]1O (stereo not given in full) [stibogluconate] + Nc1nc(F)nc2c1ncn2[C@@H]1O[C@H](CO)[C@@H](O)[C@@H]1O [fludarabine] (first compound 10 µM, partner dose 1 µM) | 82.3% | 76.8% | 74.8% | 91.5% | 132% | 76% | 93.5% | 79.9% | 52.6% | 105% | 4.94% | 1.58% | 24.6% | 40.2% | 43% | 105% | 75.6% | 93% | 94.6% | 20%
7 | Cn1nnc2c(C(N)=O)ncn2c1=O [temozolomide] + NCC(=O)Nc1ccc(-n2nc(C(F)(F)F)cc2-c2ccc3c(ccc4ccccc43)c2)cc1 [OSU03012] (first compound 10 µM, partner dose 5 µM) | 76.9% | 52.7% | 78.3% | 78% | 78.5% | 78.8% | 63.6% | 98.6% | 104% | 68.8% | 30.5% | 33.1% | 64.1% | 72.5% | 66.7% | 42.6% | 75.1% | 60.7% | 110% | 38.2%
8 | O=C(O)[C@@H]1[O][Sb](=[O])([O][Sb]2(=[O])[O][C@H]([C@H](O)CO)[C@H](O)[C@H](C(=O)O)[O]2)[O][C@H]([C@H](O)CO)[C@@H]1O (stereo not given in full) [stibogluconate] + COc1cc(Nc2ncc(F)c(Nc3ccc4c(n3)NC(=O)C(C)(C)O4)n2)cc(OC)c1OC [Tamatinib] (first compound 10 µM, partner dose 2 µM) | 74.3% | 95.6% | 36.4% | 86.9% | 48% | 63% | 60.7% | 73.8% | 19.6% | 81.2% | 74.1% | 94.8% | 108% | 67.1% | 91.7% | 78.4% | 63.3% | 71.1% | 40.9% | 88.7%
9 | O=C(Nc1cc(C(F)(F)F)cc(C(F)(F)F)c1)c1cc(Cl)ccc1O + CNC(=O)c1cc(Oc2ccc(NC(=O)Nc3ccc(Cl)c(C(F)(F)F)c3)cc2)ccn1 [sorafenib] (first compound 0.08 µM, partner dose 2 µM) | 74.4% | 81.4% | 68% | 91.7% | 113% | 76.7% | 86.7% | 70.8% | 87.1% | 102% | 108% | 81.1% | 97.4% | 67.8% | 81.3% | 110% | 82.6% | 91% | 93.1% | 69.4%
10 | Cn1nnc2c(C(N)=O)ncn2c1=O [temozolomide] + Oc1cc(-c2nc(-c3ccccc3)[nH]c2-c2ccncc2)ccc1Cl [L779450] (first compound 10 µM, partner dose 1 µM) | 66% | 95.1% | 80.6% | 86.9% | 91.8% | 84% | 88.3% | 79.9% | 84.5% | 74.3% | 34.1% | 31.8% | 68.6% | 79.2% | 99.7% | 56.7% | 59.6% | 53.9% | 61.7% | 59.1%
11 | Cn1nnc2c(C(N)=O)ncn2c1=O [temozolomide] + C=CCn1c(=O)c2cnc(Nc3ccc(N4CCN(C)CC4)cc3)nc2n1-c1cccc(C(C)(C)O)n1 [MK1775] (first compound 10 µM, partner dose 0.1 µM) | 70.1% | 51.5% | 70.5% | 47.1% | 62.2% | 78.9% | 83.7% | 73.5% | 64.6% | 80.6% | 27.5% | 77.8% | 48.8% | 45.2% | 87.7% | 59.5% | 42.1% | 48% | 44.3% | 60.9%
12 | O=C(Nc1cc(C(F)(F)F)cc(C(F)(F)F)c1)c1cc(Cl)ccc1O + O=C(Nc1cccc(Cl)c1)Nc1ncc(CCNc2ncnc3ccsc23)s1 [SNS314] (first compound 0.08 µM, partner dose 0.004 µM) | 83.2% | 101% | 74.5% | 77.1% | 79.7% | 82.6% | 98.8% | 68.8% | 78.4% | 66.7% | 65% | 92.6% | 104% | 74.5% | 74.3% | 70.1% | 53% | 69% | 86.9% | 78.3%
13 | O=C(O)[C@@H]1[O][Sb](=[O])([O][Sb]2(=[O])[O][C@H]([C@H](O)CO)[C@H](O)[C@H](C(=O)O)[O]2)[O][C@H]([C@H](O)CO)[C@@H]1O (stereo not given in full) [stibogluconate] + C=C(c1ccc(C(=O)O)cc1)c1cc2c(cc1C)C(C)(C)CCC2(C)C [Bexarotene] (first compound 10 µM, partner dose 10 µM) | 41.8% | 97.6% | 92.6% | 90% | 146% | 87.7% | 56.5% | 93.7% | 95.9% | 96.8% | 102% | 93% | 78.4% | 71.4% | 77.4% | 84.3% | 129% | 84.2% | 85.4% | 82%
14 | O=C(Nc1cc(C(F)(F)F)cc(C(F)(F)F)c1)c1cc(Cl)ccc1O + Cn1cncc1[C@@](N)(c1ccc(Cl)cc1)c1ccc2c(c1)c(-c1cccc(Cl)c1)cc(=O)n2C [tipifarnib] (first compound 0.08 µM, partner dose 0.05 µM) | 79.2% | 82.4% | 81.8% | 74.5% | 84.6% | 89.8% | 104% | 69.7% | 80.1% | 84% | 54.9% | 68.6% | 107% | 57.2% | 77.9% | 74.9% | 67.5% | 69.7% | 80.7% | 71.4%
15 | Cc1cc(N2CCOCC2)cc2[nH]c(-c3c(NC[C@@H](O)c4cccc(Cl)c4)cc[nH]c3=O)nc12 + O=C(O)C(=O)Nc1sc2c(c1C(=O)O)CCNC2 [TCS401] (first compound 1 µM, partner dose 8.33333 µM) | 92.8% | 107% | 98.5% | 83.8% | 94.3% | 96.9% | 106% | 61.8% | 96.8% | 111% | 112% | 82.8% | 78.3% | 69.2% | 86% | 128% | 89.5% | 93.5% | 51.9% | 65%
